# Test results published in PubChem BioAssay (Tox21).
# Values joined by “and” are separate entries in the source; they are usually repeats but may differ in a detail not shown here. Identical values can stand only once. This list was built around the results that the source calls inconclusive (neither active nor inactive); the mix of calls is not that of the screen. For some assays here: Potencies beside an inconclusive call are fits to weak or partial responses and may not hold up. Active and inactive are the calls of the source. Unless noted, calls follow the shape of the dose curve; as a rule, active = well fitted curve in the direction sought with a large enough effect in the repeat runs; inconclusive = weak or mixed curves; inactive = no such curve, though single readings can be large; an effect the other way counts as inactive or inconclusive.
# Tests used:
# [1] = qHTS assay for small molecule disruptors of the mitochondrial membrane potential - cell viability (AID 720634; calls by dose curve; also: nearly all actives have a fitted effect of over 20% in size;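 as to activity change, negative = cytotoxicity: human HepG2 liver cancer cells; % is scaled to controls: 0 for no effect and ±100 for the full control effect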)
# Procedure, shortened: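 Viability of HepG2 cells is scored from ATP content by luminescence; cells are exposed to compound for 1 hr at 37 C and 5% CO2, then dosed with m-MPI dye before the CellTiter-Glo reagent.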
# [2] = qHTS assay for small molecule disruptors of the mitochondrial membrane potential (AID 720635); conditions: HepG2 mitochondrial membrane potential, Mito-MPS dye ratio; ratio activity, negative = MMP loss: at 83.2 µM (top of the series) unless noted; as to ratio activity, negative = MMP loss: % is scaled to controls: 0 for no effect and ±100 for the full control effect
# Procedure, shortened: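 HepG2 cells (2,000/well) attached overnight at 37C, then took compound for 1 hr at 37C, 5% CO2. Mito-MPS dye was added for 30 min; fluorescence was read at 490/535 nm (monomers) and 540/590 nm (aggregates).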
# [3] = qHTS assay for identifying genotoxic compounds that show differential cytotoxicity against isogenic chicken DT40 cell lines with known DNA damage response pathways - wild type cell line (AID 743012); conditions: DT40 wild type chicken cells viability, CellTiter-Glo, 40 h; activity change, negative = cytotoxicity: at 68.4 µM (top of the series); also: nearly all actives have a fitted effect of over 60% in size
# Procedure, shortened: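 Viability of DNA repair-proficient chicken DT40 cells was assessed by CellTiter-Glo luminescence following 40 h compound exposure at 37 C/5% CO2.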
# [4] = qHTS assay for small molecule agonists of the p53 signaling pathway - cell viability (AID 651633; calls by dose curve; also: nearly all actives have a fitted effect of over 30% in size)
# Procedure, shortened: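 p53RE-bla cells, seeded at 4,000 per well and rested 5 h at 37 C/5% CO2, received compounds in DMSO for 16 h at 37 C. CellTiter-Glo was then added, and luminescence was read after 30 min at room temperature to gauge cytotoxicity.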
# [5] = qHTS assay to test for compound auto fluorescence at 460 nm (blue) in HEK293 cells (AID 720678); conditions: blue autofluorescence 405/460 nm
# Procedure, shortened: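 Auto fluorescence in the blue band was quantified as triamterene equivalency. HEK293 cells were seeded at 2,000/well, dosed after a 4-5 hr attachment, and kept overnight at 37C before the 405/460 nm reading.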
# [6] = qHTS assay to test for compound auto fluorescence at 460 nm (blue) in HEK293 cell free culture (AID 720681)
# Procedure, shortened: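 Test compounds were pinned into cell-free culture medium (DMEM with 10% FBS) and fluorescence was read directly at Ex/Em 405/460 nm. Signals were expressed as fluorescence equivalents of triamterene, with DMSO vehicle as control.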
# [7] = qHTS assay to test for compound auto fluorescence at 535 nm (green) in HEK293 cell free culture (AID 720682); conditions: cell-free medium, green autofluorescence 485/535 nm
# Procedure, shortened: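 No cells present: wells hold DMEM supplemented with 10% FBS, into which compound or vehicle is pinned. Green emission is then recorded (485 nm excitation, 535 nm emission) and scaled to fluorescein.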
# [8] = qHTS assay to test for compound auto fluorescence at 460 nm (blue) in HepG2 cell free culture (AID 720685); conditions: Cell-free culture medium, blue autofluorescence 405/460 nm
# Procedure, shortened: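 Cell-free plates of MEM plus 10% FBS received 23 nL compound or DMSO vehicle; blue-channel (405/460 nm) intensity scored against triamterene as reference fluorophore.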
# [9] = qHTS assay to test for compound auto fluorescence at 460 nm (blue) in HepG2 cells (AID 720687); conditions: autofluorescence 405/460 nm, 1 h
# Procedure, shortened: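 Cells (2,000/well in MEM with 10% FBS) attached overnight at 37 C, then were exposed to compound or DMSO for 1 hr at 37 C, 5% CO2. Fluorescence read at Ex/Em 405/460 nm, expressed as triamterene-equivalent signal.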
# [10] = target: Glucocorticoid receptor (Homo sapiens) (UniProt P04150); assay: qHTS assay to identify small molecule antagonists of the glucocorticoid receptor (GR) signaling pathway (AID 720692; active = well fitted inhibition curve with a large enough effect in the signal ratio in the repeat runs, not every such curve was filed as active; inconclusive = weak or mixed curves, or effect the other way; inactive = no such curve, though single readings can be large or run the other way; the % refers to the signal ratio; as to activity change, negative = inhibition: % is scaled to controls: 0 for no effect and ±100 for the full control effect); conditions: GR-bla HeLa, beta-lactamase FRET ratio, dexamethasone-stimulated, 18 h; activity change, negative = inhibition: at 58.5 µM (top of the series) unless noted
# Procedure, shortened: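 In a 1536-well cell format, compounds were added 4 h after seeding GR-bla HeLa cells, together with dexamethasone at 5 nM final; reporter activity was measured by FRET-substrate fluorescence following 18 h at 37 C.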
# [11] = qHTS assay for small molecules that induce genotoxicity in human embryonic kidney cells expressing luciferase-tagged ATAD5 (AID 651632); also: nearly all actives have a fitted effect of over 15% in size
# Procedure, shortened: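 DMSO vehicle served as the control. HEK293T reporter cells, 16 hr at 37C, then 30 min Amplite at room temperature; ATAD5 induction is measured as luciferase activity.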
# [12] = qHTS assay to identify small molecule antagonists of the glucocorticoid receptor (GR) signaling pathway - cell viability counter screen (AID 720693); conditions: GR-bla HeLa viability, CellTiter-Glo luminescence, 18 h, with 5 nM dexamethasone present; viability change, negative = cytotoxic: at 58.5 µM (top of the series); also: nearly all actives have a fitted effect of over 55% in size
# [13] = target: Glucocorticoid receptor (Homo sapiens) (UniProt P04150); assay: qHTS assay to identify small molecule agonists of the glucocorticoid receptor (GR) signaling pathway (AID 720691; active = well fitted activation curve with a large enough effect in the signal ratio in the repeat runs, not every such curve was filed as active; inconclusive = weak or mixed curves, or effect the other way; inactive = no such curve, though single readings can be large or run the other way; the % refers to the signal ratio; as to activation: % is scaled to controls: 0 for no effect and ±100 for the full control effect); conditions: GR-bla HeLa, beta-lactamase reporter ratio, 18 h; activation: at 62.4 µM (top of the series) unless noted
# Procedure, shortened: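 Compounds in DMSO, alongside positive controls, were added to GR-bla HeLa reporter cells and incubated 18 h at 37 C; GRE-driven beta-lactamase was detected by fluorescence after 2 h with FRET substrate at room temperature.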
# [14] = qHTS assay for small molecules that induce genotoxicity in human embryonic kidney cells expressing luciferase-tagged ATAD5 - cell viability (AID 651634; calls by dose curve; also: nearly all actives have a fitted effect of over 25% in size)
# Procedure, shortened: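 Here HEK293T cells with the ATAD5 luciferase reporter are incubated with test compounds for 15.5 hr, and cytotoxicity is then gauged by measuring protease activity in live cells using fluorescence.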
# Potency is read from the fitted curve at half-maximal effect; tags tell the direction and shape of the fitted curve or compound fluorescence and quenching.
# Sequence of UniProt P04150 (P04150 whole entry, looked up): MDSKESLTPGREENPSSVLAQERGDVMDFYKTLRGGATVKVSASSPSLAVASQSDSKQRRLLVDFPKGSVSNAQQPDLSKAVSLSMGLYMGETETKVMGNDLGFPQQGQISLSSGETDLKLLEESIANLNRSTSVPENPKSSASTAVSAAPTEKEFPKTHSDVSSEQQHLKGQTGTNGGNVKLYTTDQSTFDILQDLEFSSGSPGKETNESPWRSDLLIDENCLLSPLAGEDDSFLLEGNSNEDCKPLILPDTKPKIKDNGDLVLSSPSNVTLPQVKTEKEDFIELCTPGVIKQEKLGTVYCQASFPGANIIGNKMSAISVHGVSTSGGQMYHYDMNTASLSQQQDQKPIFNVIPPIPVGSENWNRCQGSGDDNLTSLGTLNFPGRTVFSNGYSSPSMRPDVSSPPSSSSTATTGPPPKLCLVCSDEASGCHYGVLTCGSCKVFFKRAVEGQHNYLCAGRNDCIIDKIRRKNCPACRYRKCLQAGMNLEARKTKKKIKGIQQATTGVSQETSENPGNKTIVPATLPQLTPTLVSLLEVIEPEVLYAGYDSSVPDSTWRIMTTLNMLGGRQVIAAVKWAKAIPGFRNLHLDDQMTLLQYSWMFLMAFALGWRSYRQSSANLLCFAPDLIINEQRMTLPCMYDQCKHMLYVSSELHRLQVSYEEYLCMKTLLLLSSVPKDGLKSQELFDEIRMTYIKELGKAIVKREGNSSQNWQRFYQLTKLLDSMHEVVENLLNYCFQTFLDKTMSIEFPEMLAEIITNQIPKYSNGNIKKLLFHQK
compound,measurement,setting,value
CCCCC(CC)COC(=O)/C=C/c1ccc(OC)cc1 (configuration not stated),Potency,[1],"inactive and inconclusive: 60.8 µM [cytotoxic, partial curve, poor fit]"
same,Potency,[2],active: 54.2 µM
same,"ratio activity, negative = MMP loss",[2],inconclusive: -29.7% and inconclusive: -34.8%
same,Potency,[3],"inconclusive: 6.08 µM [rising, single point]"
Cc1cc2nc3c(=O)[nH]c(=O)nc-3n(C[C@H](O)[C@H](O)[C@H](O)CO)c2cc1C,Potency,[4],"inconclusive: 27 µM [cytotoxic, single point]"
same,Potency,[5],"inconclusive: 12.6 µM [fluorescent, partial curve, poor fit] and inconclusive: 11.2 µM [fluorescent, partial curve, poor fit] and inconclusive: 22.4 µM [fluorescent, partial curve, poor fit]"
same,Potency,[6],"inconclusive: 11.2 µM [rising, partial curve, poor fit] and inconclusive: 14.1 µM [rising, partial curve, poor fit] and inconclusive: 22.4 µM [rising, partial curve, poor fit]"
same,Potency,[7],active: 31.6 µM [fluorescent] [middle of 4 runs]
same,Potency,[8],"inconclusive: 17.8 µM [fluorescent, partial curve, poor fit] and inconclusive: 22.4 µM [fluorescent, partial curve, poor fit]"
same,Potency,[9],"inconclusive: 35.5 µM [fluorescent, partial curve, poor fit]"
same,Potency,[10],inconclusive: 54.4 µM and inconclusive: 45.5 µM [fluorescent]
same,"activity change, negative = inhibition",[10],inconclusive: -23.9% and inconclusive: -44.2%
same,Potency,[3],inconclusive: 33.5 µM [cytotoxic]
CCn1c2ccccc2c2cc(N)ccc21,Potency,[4],"inconclusive: 67.9 µM [cytotoxic, single point]"
same,Potency,[1],"inconclusive: 67.9 µM [cytotoxic, partial curve, poor fit]"
same,Potency,[9],"inconclusive: 35.5 µM [fluorescent, partial curve, poor fit]"
same,Potency,[3],"inconclusive: 27 µM [cytotoxic, single point] and inconclusive: 68.6 µM [cytotoxic]"
N#CSCSc1nc2ccccc2s1,Potency,[11],"inconclusive: 68.6 µM [activator, single point]"
same,Potency,[10],active: 24.5 µM
same,Potency,[12],"inconclusive: 12.3 µM [cytotoxic, partial curve]"
CC[C@H](C)C(=O)O[C@H]1C[C@@H](C)C=C2C=C[C@H](C)[C@H](CC[C@@H]3C[C@@H](O)CC(=O)O3)[C@H]21,Potency,[4],"inconclusive: 68.2 µM [cytotoxic, single point]"
same,Potency,[1],"inconclusive: 26.6 µM [cytotoxic, partial curve] and inconclusive: 78 µM [cytotoxic, single point]"
same,Potency,[2],active: 18.8 µM and active: 62 µM and active: 60.8 µM
same,activation,[13],inconclusive: -7.97%
same,Potency,[10],active: 21.3 µM
same,Potency,[12],"inconclusive: 62.5 µM [cytotoxic, single point]"
COCCCN,Potency,[4],inactive
same,Potency,[2],inactive
BrC1CCC(Br)C(Br)CCC(Br)C(Br)CCC1Br (configuration not stated),Potency,[14],"inconclusive: 54.3 µM [falling, single point]"
same,Potency,[2],active: 3.84 µM and active: 9.19 µM
same,Potency,[13],inconclusive: 54.7 µM and inconclusive: 46.5 µM
same,Potency,[10],"inconclusive: 61.4 µM [cytotoxic] and inconclusive: 52.2 µM [cytotoxic, single point]"
same,Potency,[12],"inconclusive: 61.4 µM [cytotoxic, single point] and inconclusive: 46.5 µM [cytotoxic, single point]"
same,Potency,[3],"inconclusive: 1.36 µM [rising, full curve]"
CCCCCCC(C)Nc1ccc(Nc2ccccc2)cc1 (configuration not stated),Potency,[1],"inconclusive: 54.5 µM [cytotoxic, partial curve, poor fit]"
same,Potency,[2],active: 30.6 µM
same,Potency,[13],inconclusive: 54.9 µM [cytotoxic]
same,Potency,[10],active: 43.6 µM
same,Potency,[12],active: 49 µM
c1ccc(Nc2cccc3ccccc23)cc1,Potency,[4],"inconclusive: 61.9 µM [cytotoxic, partial curve, poor fit]"
same,Potency,[1],"inconclusive: 49.2 µM [cytotoxic, partial curve] and active: 54.5 µM"
same,Potency,[10],"inconclusive: 62.5 µM [cytotoxic] and inconclusive: 54.9 µM [inhibitor, partial curve, poor fit]"
same,Potency,[12],"inconclusive: 54.9 µM [cytotoxic, single point]"
same,Potency,[3],"active: 69.5 µM and inconclusive: 68.6 µM [cytotoxic, single point]"
CC(=O)O[C@]1(C(C)=O)CC[C@H]2[C@@H]3C=C(C)C4=CC(=O)CC[C@]4(C)[C@H]3CC[C@@]21C,Potency,[4],"inconclusive: 14.3 µM [cytotoxic, partial curve, poor fit]"
same,Potency,[1],"inconclusive: 30.6 µM [cytotoxic, partial curve]"
same,Potency,[2],"inconclusive: 4.03 µM [activator] and inconclusive: 7.7 µM [activator, full curve]"
same,Potency,[10],active: 91 nM and active: 77.6 nM
COc1cc([C@@H]2c3cc4c(cc3[C@H](O)[C@H]3COC(=O)[C@H]23)OCO4)cc(OC)c1OC,Potency,[14],"inconclusive: 0.0106 µM [falling, partial curve, poor fit]"
same,Potency,[13],inactive
CC(C)(c1ccc(O)cc1)c1ccc(O)cc1,Potency,[4],"inconclusive: 55.4 µM [cytotoxic, single point]"
same,Potency,[2],active: 6.78 µM and active: 5.54 µM
same,Potency,[12],"inconclusive: 49.9 µM [rising, partial curve, poor fit]"
CCCCCCCCOC(=O)c1ccc(O)cc1,Potency,[1],inconclusive: 60.9 µM [cytotoxic] and active: 24.3 µM
same,Potency,[2],active: 17.2 µM
same,Potency,[13],"inconclusive: 54.8 µM [cytotoxic, single point] and inconclusive: 54.9 µM [cytotoxic]"
same,Potency,[10],inconclusive: 54.8 µM [cytotoxic]
same,"activity change, negative = inhibition",[10],inconclusive: -3.7%
same,Potency,[12],"inconclusive: 54.8 µM [cytotoxic, single point]"
same,Potency,[3],"inconclusive: 68.4 µM [cytotoxic, single point] and inconclusive: 68.6 µM [cytotoxic, single point]"
Oc1ccc(Cl)cc1Cc1cc(Cl)ccc1O,Potency,[4],active: 18.8 µM and active: 55.5 µM and active: 43.3 µM
same,Potency,[1],"active: 6.68 µM and active: 221 nM and inconclusive: 1.09 µM [cytotoxic, partial curve, poor fit]"
same,Potency,[2],active: 1.88 µM and active: 1.24 µM and active: 1.22 µM
same,Potency,[10],inconclusive: 55.9 µM [cytotoxic]
same,"activity change, negative = inhibition",[10],inconclusive: -67.7% and inconclusive: -79.6%
same,Potency,[12],"inconclusive: 23.9 µM [cytotoxic, partial curve] and active: 39.6 µM and active: 34.7 µM"
O=C1c2c(O)ccc(O)c2C(=O)c2c(NCCNCCO)ccc(NCCNCCO)c21,Potency,[14],active: 9.02 µM
same,"ratio activity, negative = MMP loss",[2],inconclusive: 20.1% [at 39.1 µM]
same,Potency,[13],"inconclusive: 5.74 µM [cytotoxic, partial curve]"
same,"activity change, negative = inhibition",[10],inconclusive: -54.4% [at 27 µM]
same,Potency,[12],"inconclusive: 11.5 µM [cytotoxic, single point]"
CCCCCCOC(=O)c1ccc(O)cc1,Potency,[4],"inconclusive: 61.2 µM [cytotoxic, single point]"
same,Potency,[1],active: 27.3 µM and active: 17.2 µM
same,Potency,[2],active: 6.12 µM and active: 8.63 µM
same,Potency,[13],inconclusive: 49 µM [cytotoxic]
same,Potency,[10],"inconclusive: 55 µM [cytotoxic] and inconclusive: 49 µM [inhibitor, single point]"
same,Potency,[12],"inconclusive: 55 µM [cytotoxic, single point] and inconclusive: 54.9 µM [cytotoxic, single point]"
CSCCC=O,Potency,[4],"inconclusive: 15.4 µM [cytotoxic, partial curve, poor fit]"
c1ccc(OCCOc2ccccc2)cc1,Potency,[4],inactive
same,Potency,[2],"inconclusive: 21.7 µM [rising, partial curve]"
same,Potency,[10],inactive
COc1ccc(C(Cl)=C(c2ccc(OC)cc2)c2ccc(OC)cc2)cc1,Potency,[4],"inconclusive: 11.9 µM [cytotoxic, partial curve, poor fit] and inconclusive: 6.86 µM [cytotoxic, full curve, poor fit]"
same,activation,[13],inconclusive: 4.82% [phenotype inactive]
same,Potency,[10],"inconclusive: 61.4 µM [cytotoxic, partial curve, poor fit] and inconclusive: 2.45 µM [inhibitor, partial curve, poor fit]"
same,"activity change, negative = inhibition",[10],inconclusive: -34.5%
same,Potency,[12],inactive
Cc1cc(OCCOCC[N+](C)(C)Cc2ccccc2)ccc1C(C)(C)CC(C)(C)C,Potency,[14],"inconclusive: 21.1 µM [falling, partial curve]"
same,Potency,[1],"inconclusive: 33.5 µM [cytotoxic, single point] and active: 12.1 µM"
same,Potency,[2],active: 16.8 µM and active: 3.05 µM
same,Potency,[13],"inconclusive: 21.3 µM [cytotoxic, partial curve] and inconclusive: 15.4 µM [cytotoxic, full curve]"
same,Potency,[10],"inconclusive: 26.8 µM [cytotoxic] and inconclusive: 24.4 µM [cytotoxic, full curve]"
same,Potency,[12],active: 21.3 µM and active: 17.3 µM
